According to paper PMC4908412, “β-arrestin-1 contributes to brown fat function and directly interacts with PPARα and PPARγ” (Scientific Reports, 2016):

How the values were obtained:
Test in all cases: BLI; Octet Red 96; 50 μg/ml biotinylated PPARα-LBD or PPARγ-LBD (or their mutants) immobilised on streptavidin biosensors; analyte β-arrestin-1, βarr1M or peptides in solution (single 2 μM or serial dilutions, β-arrestin-1 0.5–32 μM); 25 °C; 2:1 heterogeneous ligand model and steady-state analysis
Settings in all cases: both partners purified
[1] = target: T1, PPARγ-ligand binding domain (amino acids 204–477) (human, UniProt P37231-2 204-477, biotinylated for biolayer interferometry; 15N-labeled for NMR)
T1 construct: The His tag is used for capture in the pulldown; also called PPARγ-LBD; wild-type PPARγ; source: E. coli BL21 (DE3)-CodonPlus, purified; not shown: His6, N-terminal, kept
T1 sequence (looked up): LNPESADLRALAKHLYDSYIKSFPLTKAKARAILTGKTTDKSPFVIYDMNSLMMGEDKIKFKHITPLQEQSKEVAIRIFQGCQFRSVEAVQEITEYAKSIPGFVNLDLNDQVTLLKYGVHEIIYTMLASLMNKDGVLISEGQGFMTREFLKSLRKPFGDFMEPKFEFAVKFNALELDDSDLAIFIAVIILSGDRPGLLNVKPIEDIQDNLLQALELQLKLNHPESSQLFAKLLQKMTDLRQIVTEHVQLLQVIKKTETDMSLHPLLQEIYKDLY

[2] = target: T2, PPARα-ligand binding domain (amino acids 196–468) (human, UniProt Q07869 196-468, biotinylated for biolayer interferometry; 15N-labeled for NMR)
T2 construct: The His tag is used for capture in the pulldown; also called PPARα-LBD; wild-type PPARα; source: E. coli BL21 (DE3)-CodonPlus, purified; not shown: His6, N-terminal, kept
T2 sequence (looked up): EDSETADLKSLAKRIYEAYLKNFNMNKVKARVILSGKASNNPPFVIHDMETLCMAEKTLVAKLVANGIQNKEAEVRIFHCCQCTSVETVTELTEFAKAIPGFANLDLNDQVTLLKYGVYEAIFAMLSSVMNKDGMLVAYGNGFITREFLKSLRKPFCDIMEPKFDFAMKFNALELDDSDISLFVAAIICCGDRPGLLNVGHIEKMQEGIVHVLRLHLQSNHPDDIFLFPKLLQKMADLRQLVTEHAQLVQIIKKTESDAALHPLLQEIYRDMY

[3] = target: T2, PPARα-ligand binding domain (amino …); remark: listed apart in the source
[4] = target: T1, PPARγ-ligand binding domain (amino …); remark: listed apart in the source

- KD1 (2:1 HL model) [1]: 2.97 µM
- KD2 (2:1 HL model) [1]: 0.95 µM
- koff1 (2:1 HL model) [1]: 0.742 S^−1
- koff2 (2:1 HL model) [1]: 0.00124 S^−1
- kon1 (2:1 HL model) [1]: 250000 M^−1S^−1
- kon2 (2:1 HL model) [1]: 1300 M^−1S^−1
- KD1 (2:1 HL model) [2]: 1.53 µM
- KD2 (2:1 HL model) [2]: 1.76 µM
- koff1 (2:1 HL model) [2]: 0.00281 S^−1
- koff2 (2:1 HL model) [2]: 0.269 S^−1
- kon1 (2:1 HL model) [2]: 1840 M^−1S^−1
- kon2 (2:1 HL model) [2]: 153000 M^−1S^−1
- maximum response [3]: 0.46 nm
- maximum response [4]: 0.59 nm
B1: β-arrestin-1 double mutant with L100A and L104A (natural protein)
chain: not shown
notes: β-arrestin-1 with L100A and L104A; also called βarr1M; source: purified
